Test results: patent US5962636A, “Peptides capable of modulating inflammatory heart disease” (priority 1998, dated 1999)
Not every detail of the peptide structures is certain; ends, links or a residue may be inferred. No end group written: not given here.

Key:
Balb/c mice = assay: Induction of inflammatory cardiomyopathy by immunization with peptide in Freund's complete adjuvant; heart histology; format: in vivo; details: for Prevalence: mice with inflammatory cardiomyopathy/mice injected, immunized days 0 and 7 with peptide in FCA, analysed day 21; for Percent: percent of injected mice with inflammatory cardiomyopathy; for Percent / mice that had developed inflammatory cardiomyopathy: day 21; for mice that had developed inflammatory cardiomyopathy: Balb/c mice about 6 weeks old, immunized days 0 and 7 with FCA containing about 100 microliters of about 500 micrograms/ml peptide
mice = assay: Simultaneous injection of murine M7A-alpha and M7A-beta peptides; development of inflammatory cardiomyopathy; format: in vivo; details: about 50-100 micrograms of both peptides injected simultaneously

Substance | Prevalence (Balb/c mice) | Percent (Balb/c mice) [%] | mice that had developed inflammatory cardiomyopathy (Balb/c mice) | development of inflammatory cardiomyopathy after simultaneous injection of M7A-alpha and M7A-beta (mice) | induction of inflammatory cardiomyopathy compared with murine M7A-alpha (Balb/c mice; procedure as for the other peptides)
Ac-MGSMAFHKSRLFLT [C. trach. p11] | 4/8 | 50 | – | – | –
SLKLLSNLFANYAG [Peptide M7A-beta] | – | – | none | did not develop inflammatory cardiomyopathy | –
Ac-GIEAAVAESLITKIVA [C. pneum. CRP] | 6/10 | 60 | – | – | –
SLKLMATLFSTYASAD [mouse M7A-alpha] | 18/21 | 86 | – | – | –
SLKLMATLFSSYAT [SEQ ID NO:16] | – | – | – | – | about the same degree as murine M7A-alpha
Ac-VLETSMAEFISTNVIS [C. trach. 3 CRP] | 7/8 | 88 | – | – | –
SLKLMATLFSTYAS [M7A-alpha amino acids 1-14] | – | – | 24 of the 27 | – | –
Ac-VLETSMAESLSTNVIS [C. trach. 2 CRP] | 7/8 | 88 | – | – | –
